Test results reported in the supplement of paper PMC11876631.
± gives the standard deviation of the averaged measurements. Laboratory Escherichia coli strains with one amino-acid change in an essential protein, pooled on minimal glucose agar with carbenicillin or gentamicin at twice the control MIC (plus kanamycin and chloramphenicol for the plasmids), 48 h. Fold change of barcode share against drug-free plates; higher = less susceptible. Active = above 20 in both replicates (the paper's putatively resistant). '<' = one read or none on drug, '>' = one read or none on a drug-free plate. Shares are relative, so most strains fall below 1 when a few take over. Listed are strains with at least 15 reads on both drug-free plates, and hits; most hits rest on fewer reference reads. Replicate rank correlation about 0.5. Edits are read from barcodes.

B1: purF; numbered along this chain (parent)
chain: MCGIVGIAGVMPVNQSIYDALTVLQHRGQDAAGIITIDANNCFRLRKANGLVSDVFEARHMQRLQGNMGIGHVRYPTAGSSSASEAQPFYVNSPYGITLAHNGNLTNAHELRKKLFEEKRRHINTTSDSEILLNIFASELDNFRHYPLEADNIFAAIAATNRLIRGAYACVAMIIGHGMVAFRDPNGIRPLVLGKRDIDENRTEYMVASESVALDTLGFDFLRDVAPGEAIYITEEGQLFTRQCADNPVSNPCLFEYVYFARPDSFIDKISVYSARVNMGTKLGEKIAREWEDLDIDVVIPIPETSCDIALEIARILGKPYRQGFVKNRYVGRTFIMPGQQLRRKSVRRKLNANRAEFRDKNVLLVDDSIVRGTTSEQIIEMAREAGAKKVYLASAAPEIRFPNVYGIDMPSATELIAHGREVDEIRQIIGADGLIFQDLNDLIDAVRAENPDIQQFECSVFNGVYVTKDVDQGYLDFLDTLRNDDAKAVQRQNEVENLEMHNEG
B2: purL; numbered along this chain (parent)
chain: MMEILRGSPALSAFRINKLLARFQAARLPVHNIYAEYVHFADLNAPLNDDEHAQLERLLKYGPALASHAPQGKLLLVTPRPGTISPWSSKATDIAHNCGLQQVNRLERGVAYYIEAGTLTNEQWQQVTAELHDRMMETVFFALDDAEQLFAHHQPTPVTSVDLLGQGRQALIDANLRLGLALAEDEIDYLQDAFTKLGRNPNDIELYMFAQANSEHCRHKIFNADWVIDGEQQPKSLFKMIKNTFETTPDHVLSAYKDNAAVMEGSEVGRYFADHETGRYDFHQEPAHILMKVETHNHPTAISPWPGAATGSGGEIRDEGATGRGAKPKAGLVGFSVSNLRIPGFEQPWEEDFGKPERIVTALDIMTEGPLGGAAFNNEFGRPALNGYFRTYEEKVNSHNGEELRGYHKPIMLAGGIGNIRADHVQKGEINVGAKLVVLGGPAMNIGLGGGAASSMASGQSDADLDFASVQRDNPEMERRCQEVIDRCWQLGDANPILFIHDVGAGGLSNAMPELVSDGGRGGKFELREILSDEPGMSPLEIWCNESQERYVLAVAADQLPLFDELCKRERAPYAVIGEATEELHLSLHDRHFDNQPIDLPLDVLLGKTPKMTRDVQTLKAKGDALAREGITIADAVKRVLHLPTVAEKTFLVTIGDRSVTGMVARDQMVGPWQVPVANCAVTTASLDSYYGEAMAIGERAPVALLDFAASARLAVGEALTNIAATQIGDIKRIKLSANWMAAAGHPGEDAGLYEAVKAVGEELCPALGLTIPVGKDSMSMKTRWQEGNEEREMTSPLSLVISAFARVEDVRHTITPQLSTEDNALLLIDLGKGNNALGATALAQVYRQLGDKPADVRDVAQLKGFYDAIQALVAQRKLLAYHDRSDGGLLVTLAEMAFAGHCGIDADIATLGDDRLAALFNEELGAVIQVRAADREAVESVLAQHGLADCVHYVGQAVSGDRFVITANGQTVFSESRTTLRVWWAETTWQMQRLRDNPECADQEHQAKSNDADPGLNVKLSFDINEDVAAPYIATGARPKVAVLREQGVNSHVEMAAAFHRAGFDAIDVHMSDLLTGRTGLEDFHALVACGGFSYGDVLGAGEGWAKSILFNDRVRDEFATFFHRPQTLALGVCNGCQMMSNLRELIPGSELWPRFVRNTSDRFEARFSLVEVTQSPSLLLQGMVGSQMPIAVSHGEGRVEVRDAAHLAALESKGLVALRYVDNFGKVTETYPANPNGSPNGITAVTTESGRVTIMMPHPERVFRTVSNSWHPENWGEDGPWMRIFRNARKQLG
B3: folC; numbered along this chain (parent)
chain: MIIKRTPQAASPLASWLSYLENLHSKTIDLGLERVSLVAARLGVLKPAPFVFTVAGTNGKGTTCRTLESILMAAGYKVGVYSSPHLVRYTERVRVQGQELPESAHTASFAEIESARGDISLTYFEYGTLSALWLFKQAQLDVVILEVGLGGRLDATNIVDADVAVVTSIALDHTDWLGPDRESIGREKAGIFRSEKPAIVGEPEMPSTIADVAQEKGALLQRRGVEWNYSVTDHDWAFSDAHGTLENLPLPLVPQPNAATALAALRASGLEVSENAIRDGIASAILPGRFQIVSESPRVIFDVAHNPHAAEYLTGRMKALPKNGRVLAVIGMLHDKDIAGTLAWLKSVVDDWYCAPLEGPRGATAEQLLEHLGNGKSFDSVAQAWDAAMADAKAEDTVLVCGSFHTVAHVMEVIDARRSGGK
B4: lpxH; numbered along this chain (parent)
chain: MATLFIADLHLCVEEPAITAGFLRFLAGEARKADALYILGDLFEAWIGDDDPNPLHRKMAAAIKAVSDSGVPCYFIHGNRDFLLGKRFARESGMTLLPEEKVLELYGRRVLIMHGDTLCTDDAGYQAFRAKVHKPWLQTLFLALPLFVRKRIAARMRANSKEANSSKSLAIMDVNQNAVVSAMEKHQVQWLIHGHTHRPAVHELIANQQPAFRVVLGAWHTEGSMVKVTADDVELIHFPF

Variants of: B1
Experiment: barcode share on antibiotic plates over drug-free plates; higher = less susceptible
Conditions: with Escherichia coli (laboratory strain); antibiotic: carbenicillin; 2× MIC (3.1 µg/mL)
Procedure: (§1)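 A pool of E. coli strains, each edited to carry one amino-acid change in an essential protein, was grown for 48 h on minimal glucose agar with or without antibiotic; strain barcodes were sequenced; mean of two replicates.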

Variant	fold change of barcode share
V171P	51.3 [active]
V171A	0.617 ± 0.11
V171D	> 181 [active]
I35Q	0.55 ± 0.075
I35W	0.558 ± 0.12
I35D	0.7785 ± 0.0065
I35A	0.687 ± 0.024
I35P	> 30.5 [active]
L254D	0.494 ± 0.033
L254Q	0.349 ± 0.095
L24A	1.31 ± 0.82
L24P	4.4 ± 0.42
L24W	55.2 [active]
L24Q	4.34 ± 0.28
F255Q	0.581 ± 0.014
F255W	2.39 ± 0.76
F255A	0.631 ± 0.06
L479D	1.31 ± 0.35
L479W	6.1519 ± 0.0019
L479A	6.39 ± 1.6
I174Q	3 ± 0.39
I174A	0.769 ± 0.066
I174P	89.5 [active]
I174W	7.54 ± 0.57
M173A	0.507 ± 0.016
M173Q	0.528 ± 0.19
M173P	110 [active]
M173D	9.29 ± 3.3
M173W	0.749 ± 0.2

Same assay, conditions: with Escherichia coli (laboratory strain); antibiotic: gentamicin; 2× MIC (MIC 0.45 µg/mL)

Variant	fold change of barcode share
V171A	0.0116 ± 0.015
I35Q	0.00411 ± 0.0023
I35W	0.00599 ± 0.0051
I35D	0.0199 ± 0.0011
I35A	< 0.00324
L24A	< 0.0032
L24P	0.0207 ± 0.0029
L24Q	0.00689 ± 0.0032
F255Q	< 0.0195
L479D	0.0109 ± 0.0061
L479W	< 0.012
L479A	< 0.0196
I174Q	0.00576 ± 0.0037
I174A	0.00257 ± 0.00043
I174W	0.00911 ± 0.0053
I174D	< 0.0234
M173A	0.00701 ± 0.0066
M173Q	0.0136 ± 0.013
M173D	0.00729 ± 0.0075
M173W	0.0214 ± 0.027

Variants of: B2
Experiment: as above
Conditions: with Escherichia coli (laboratory strain); antibiotic: carbenicillin; 2× MIC (3.1 µg/mL)
Procedure: as §1

Variant	fold change of barcode share
M512D	1.34 ± 0.09
M512P	1.26 ± 0.029
M512A	1.4 ± 0.55
M512Q	1.12 ± 0.02
M512W	1.01 ± 0.13
L652D	> 28.1 [active]
L652Q	2.64 ± 1.2
L652W	> 40.3 [active]
F499Q	0.686 ± 0.24
F499W	0.75 ± 0.16
F499D	0.876 ± 0.43
F499P	1.77 ± 0.73
F499A	1.07 ± 0.34
I500P	1.02 ± 0.066
I500W	0.591 ± 0.31
I500A	0.56 ± 0.014
I500Q	0.513 ± 0.18
I500D	2.1 ± 0.3
L720W	0.757 ± 0.21
L720A	0.592 ± 0.17
L720D	> 46.3 [active]
V333Q	0.408 ± 0.18
V333P	> 50.5 [active]

Same assay, conditions: with Escherichia coli (laboratory strain); antibiotic: gentamicin; 2× MIC (MIC 0.45 µg/mL)

Variant	fold change of barcode share
M512D	0.0104 ± 0.0034
M512P	0.0093 ± 0.0042
M512A	0.00859 ± 0.0038
M512Q	0.00764 ± 0.0041
M512W	0.0538 ± 0.063
L652Q	< 0.0181
F499Q	< 0.00553
F499W	0.017 ± 0.016
F499D	< 0.0123
F499P	< 0.0198
F499A	< 0.00808
I500P	< 0.00708
I500W	0.0232 ± 0.0062
I500A	0.0111 ± 0.0055
I500Q	< 0.00974
L720A	0.0165 ± 0.013
V333Q	< 0.00922
V333A	< 0.016

Variants of: B3
Experiment: as above
Conditions: with Escherichia coli (laboratory strain); antibiotic: gentamicin; 2× MIC (MIC 0.45 µg/mL)
Procedure: as §1

Variant	fold change of barcode share
V329A	0.0167 ± 0.0099
L145Q	< 0.00321
L145D	< 0.00775
L145A	0.0187 ± 0.012
L145P	0.0128 ± 0.0041
V143Q	< 0.00529

Variants of: B4
Experiment: as above
Conditions: with Escherichia coli (laboratory strain); antibiotic: carbenicillin; 2× MIC (3.1 µg/mL)
Procedure: as §1

Variant	fold change of barcode share
F75P	0.614 ± 0.09
F75A	0.257 ± 0.096
F75D	0.319 ± 0.0032
F75Q	0.213 ± 0.045

Same assay, conditions: with Escherichia coli (laboratory strain); antibiotic: gentamicin; 2× MIC (MIC 0.45 µg/mL)

Variant	fold change of barcode share
F75P	< 0.00443
F75A	0.00769 ± 0.0083
F75D	0.00506 ± 0.0025
F75Q	0.00375 ± 0.0026
